Assay results taken from article PMC4336329 (PLoS ONE, 2015).
Screen size: about 310,000 compounds; about 2,200 (0.71%) showed an effect of 50% or more. Effects have a minus sign here. This is one part of the list.

These molecules were tested against human ether-à-go-go-related gene (hERG) potassium channel (human, UniProt Q12809) (assay: primary screen, population patch clamp on CHO cells stably expressing hERG).
Chain of human ether-à-go-go-related gene (hERG) potassium channel (Q12809 whole entry, looked up): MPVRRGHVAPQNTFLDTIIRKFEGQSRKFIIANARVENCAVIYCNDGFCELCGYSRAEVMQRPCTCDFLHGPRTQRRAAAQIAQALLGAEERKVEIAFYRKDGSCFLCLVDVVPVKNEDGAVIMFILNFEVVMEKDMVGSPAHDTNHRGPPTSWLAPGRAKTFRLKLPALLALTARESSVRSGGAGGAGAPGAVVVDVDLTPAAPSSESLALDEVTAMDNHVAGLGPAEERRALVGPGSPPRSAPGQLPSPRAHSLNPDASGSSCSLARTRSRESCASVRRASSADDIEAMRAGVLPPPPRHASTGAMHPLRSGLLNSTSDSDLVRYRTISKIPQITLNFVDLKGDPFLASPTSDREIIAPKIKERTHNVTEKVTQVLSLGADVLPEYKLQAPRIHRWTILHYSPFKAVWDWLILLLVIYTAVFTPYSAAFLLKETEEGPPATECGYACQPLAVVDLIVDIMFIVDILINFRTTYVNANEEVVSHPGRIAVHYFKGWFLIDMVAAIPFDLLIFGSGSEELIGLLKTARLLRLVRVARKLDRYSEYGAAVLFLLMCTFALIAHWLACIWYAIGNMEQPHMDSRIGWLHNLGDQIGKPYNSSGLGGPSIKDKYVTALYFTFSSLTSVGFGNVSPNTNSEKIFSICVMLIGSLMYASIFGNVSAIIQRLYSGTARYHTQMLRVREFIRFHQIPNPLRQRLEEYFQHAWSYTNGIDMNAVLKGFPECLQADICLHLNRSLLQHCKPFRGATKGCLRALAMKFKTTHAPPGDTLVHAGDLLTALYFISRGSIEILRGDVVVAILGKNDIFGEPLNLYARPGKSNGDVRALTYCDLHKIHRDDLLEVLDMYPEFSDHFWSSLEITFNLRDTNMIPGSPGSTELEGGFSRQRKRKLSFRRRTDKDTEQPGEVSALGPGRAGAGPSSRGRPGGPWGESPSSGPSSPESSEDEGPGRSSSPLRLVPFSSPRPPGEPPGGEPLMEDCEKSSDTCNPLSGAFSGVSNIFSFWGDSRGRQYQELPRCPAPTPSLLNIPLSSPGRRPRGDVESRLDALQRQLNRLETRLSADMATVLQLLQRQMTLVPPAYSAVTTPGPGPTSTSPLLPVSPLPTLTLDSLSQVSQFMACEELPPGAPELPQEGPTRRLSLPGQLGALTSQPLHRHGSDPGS
With `CCCNC(=O)CCn1nc(-c2ccc(Cl)cc2)c2ccccc2c1=O` the “hERG current change (%, negative = inhibition) at 1uM” value was 1.68%. `Cc1ccc(S(=O)(=O)N2CCC(C(=O)OCC(=O)N(CCC#N)c3ccc(F)cc3)CC2)cc1C` was tested, and the “hERG current change (%, negative = inhibition) at 1uM” value was 0.922%. For `c1ccc2sc(SCSc3nc4ccccc4s3)nc2c1`, the “hERG current change (%, negative = inhibition) at 1uM” value was 14.1%. In the case of `Cl.O=[N+]([O-])c1ccc(N2CCNCC2)cc1N1CCCCCC1`, the “hERG current change (%, negative = inhibition) at 1uM” value is reported as -11.7%. In the case of `CCCC(=O)Nc1cccc(NC(=O)c2ccc([N+](=O)[O-])cc2Cl)c1`, the “hERG current change (%, negative = inhibition) at 1uM” value is reported as 6.75%. For `COc1cc(-c2nc3ccccn3c2/N=C/c2cc(OC)c(O)cc2Cl)ccc1O`, the “hERG current change (%, negative = inhibition) at 1uM” value was 3.29%. For `COc1ccc(C(=O)NN(c2ccccc2)c2ccccc2)cc1`, the “hERG current change (%, negative = inhibition) at 1uM” value was 3.89%. For `CC(C)N(C(C)C)S(=O)(=O)c1ccc(NC(=O)c2cnccn2)cc1`, the “hERG current change (%, negative = inhibition) at 1uM” value was 10.9%. For `CCc1cc2c(=O)c(-c3ccc4c(c3)OCCO4)c(C)oc2cc1OS(C)(=O)=O`, the “hERG current change (%, negative = inhibition) at 1uM” value was 12.8%. For `O=C(CSc1ccc(-c2ccc(F)cc2)nn1)Nc1ccc2c(c1)OCCO2`, the “hERG current change (%, negative = inhibition) at 1uM” value was 1.47%. For `COc1cccc(NC(=O)c2ccccc2Oc2ccccc2)c1`, the “hERG current change (%, negative = inhibition) at 1uM” value was 12.6%. `O=C(NC1CCCCC1)C(c1ccc(F)cc1)N(CCN1CCOCC1)C(=O)c1ccc(-c2ccccc2)[nH]1` (stereo not shown) was tested, and the “hERG current change (%, negative = inhibition) at 1uM” value was 15%. `CCOc1ccc(-c2nc(N)ncc2-c2ccccc2OC)c(O)c1` was tested, and the “hERG current change (%, negative = inhibition) at 1uM” value was 1.66%. `Cc1c(-c2nc(N)nc(Nc3ccc(F)cc3)n2)oc2ccccc12` was tested, and the “hERG current change (%, negative = inhibition) at 1uM” value was 9.46%. For `O=C(COC(=O)CCC(=O)c1cccs1)NC1CCCCC1`, the “hERG current change (%, negative = inhibition) at 1uM” value was 7.5%. With `Cc1cccc(C)c1OCC(O)CNC(C)C.Cl` (stereo not shown) the “hERG current change (%, negative = inhibition) at 1uM” value was 9.46%. In the case of `COc1ccc(Br)cc1CNC(=O)c1ccc2c(c1)N(C)CCS2`, the “hERG current change (%, negative = inhibition) at 1uM” value is reported as 0.856%. For `O=C(NCc1ccccc1)C1CCCN(S(=O)(=O)c2ccc(Br)cc2)C1` (stereo not shown), the “hERG current change (%, negative = inhibition) at 1uM” value was 14.3%. `O=C(NC1(C(F)(F)F)NC(=O)N(Cc2ccco2)C1=O)c1cccnc1` (stereo not shown) was tested, and the “hERG current change (%, negative = inhibition) at 1uM” value was 6.28%. In the case of `CCOC(=O)CN1C=C(c2ccc3ccccc3n2)C(C[N+](=O)[O-])c2ccccc21` (stereo not shown), the “hERG current change (%, negative = inhibition) at 1uM” value is reported as 9.39%. For `C/C(=N/NC(=O)c1ccc2c(c1)OCO2)c1cccc(NC(=O)C(C)(C)C)c1`, the “hERG current change (%, negative = inhibition) at 1uM” value was 9.89%. `CCC(CC)C(=O)Nc1cc([N+](=O)[O-])ccc1Cl` was tested, and the “hERG current change (%, negative = inhibition) at 1uM” value was -5.45%. With `NC(=O)CC(NC(=O)Cc1ccc(Br)cc1)c1ccc(NCCc2ccc(F)cc2)c([N+](=O)[O-])c1` (stereo not shown) the “hERG current change (%, negative = inhibition) at 1uM” value was 7.47%. `COc1cc(CNc2ncn[nH]2)ccc1OCc1cccc(C)c1` was tested, and the “hERG current change (%, negative = inhibition) at 1uM” value was -0.15%. In the case of `O=C(Nc1ccccc1)C1=C[C@@H](c2ccc(C(F)(F)F)cc2)C[C@@H](OCc2ccc(CO)cc2)O1`, the “hERG current change (%, negative = inhibition) at 1uM” value is reported as 13.3%. In the case of `O=C(O)CCCC(=O)Nc1ccccc1C(=O)O`, the “hERG current change (%, negative = inhibition) at 1uM” value is reported as -0.879%. `CCOc1cc(-c2nc3cc(C)ccn3c2NCC2CCCO2)ccc1O` (stereo not shown) was tested, and the “hERG current change (%, negative = inhibition) at 1uM” value was -47.3%. With `O=C(NCc1ccccc1)C(c1ccccc1F)N(CC1CCCO1)C(=O)c1ccccn1` (stereo not shown) the “hERG current change (%, negative = inhibition) at 1uM” value was 12.1%. For `COc1ccc(O)c(/C=N/NC(=O)CCC(=O)Nc2cccc(C)c2)c1`, the “hERG current change (%, negative = inhibition) at 1uM” value was 8.42%. With `Cc1ccc(NC(=O)COc2cccc3ccc(C)nc23)c(Br)c1` the “hERG current change (%, negative = inhibition) at 1uM” value was 11.4%. With `Nc1[nH]n2c(=O)c3c(nc2c1N=Nc1ccccc1)CCCC3` the “hERG current change (%, negative = inhibition) at 1uM” value was -3.94%. `CC(=O)c1sc2nsc(SCCN3CCOCC3)c2c1N` was tested, and the “hERG current change (%, negative = inhibition) at 1uM” value was 11.3%. With `O=C(N/N=C/c1ccc(O)cc1)c1[nH]c2ccc(Br)cc2c1-c1ccccc1` the “hERG current change (%, negative = inhibition) at 1uM” value was 19.6%. With `CC(C)[C@H](NS(=O)(=O)c1ccc(Cl)cc1)C(=O)OCC(=O)NCCN1C(=O)CSC1=O` the “hERG current change (%, negative = inhibition) at 1uM” value was 11.7%. In the case of `COc1ccc(N=c2oc3ccccc3cc2C(=O)Nc2ccccn2)cc1OC`, the “hERG current change (%, negative = inhibition) at 1uM” value is reported as 18.6%. `CC(=O)Nc1ccc(C(=O)c2ccccc2)cc1` was tested, and the “hERG current change (%, negative = inhibition) at 1uM” value was -2.24%. `CC(C)Cc1nc2oc3c(Cl)ncnc3c2c2c1CCCC2` was tested, and the “hERG current change (%, negative = inhibition) at 1uM” value was -2.28%. With `O=C(NCC1(N2CCCCC2)CCCCC1)c1cccc(S(=O)(=O)Nc2ccc(F)cc2)c1` the “hERG current change (%, negative = inhibition) at 1uM” value was -8.67%. In the case of `CO/N=C/NC(=O)C1=NOC(CNc2ncc(C(F)(F)F)cc2Cl)C1` (stereo not shown), the “hERG current change (%, negative = inhibition) at 1uM” value is reported as -2.89%. In the case of `c1coc(-c2nnc(SCc3nc4ccccc4[nH]3)o2)c1`, the “hERG current change (%, negative = inhibition) at 1uM” value is reported as 2.6%. `Fc1cccc(-c2nn[nH]n2)c1` was tested, and the “hERG current change (%, negative = inhibition) at 1uM” value was 6.51%. With `CN(C(=O)CS(=O)(=O)c1cn(CC(=O)N2CCCCC2)c2ccccc12)c1ccccc1` the “hERG current change (%, negative = inhibition) at 1uM” value was 11.9%. With `COc1ccc(C(C)(C)C)cc1NC(=O)CCN1C(=O)C2CCCCC2C1=O` (stereo not shown) the “hERG current change (%, negative = inhibition) at 1uM” value was 25.2%.
